The antibiotic and cytotoxicity screens of Wong et al. (2023)
Some of the results follow.

Tests used:
HSkMC = human skeletal muscle cells; assay: cytotoxicity call (relative viability < 0.9); conditions: 10 µM
HepG2 = assay: cytotoxicity call (relative viability < 0.9); conditions: 10 µM
S. aureus RN4220 = assay: growth inhibition call (relative growth <= 0.2); conditions: 50 µM

Structure (SMILES) | cytotoxicity call (HSkMC) | cytotoxicity call (HepG2) | growth inhibition call (S. aureus RN4220)
O=C(C[C@H]1CC[C@@H](NC(=O)c2ccc(F)cc2)[C@H](CO)O1)NCc1ccncn1 | inactive | inactive | inactive
C[C@@H]1CCCCO[C@H](CN(C)S(=O)(=O)c2ccc(Cl)cc2)[C@@H](C)CN([C@H](C)CO)C(=O)c2cc(NS(=O)(=O)c3ccc(F)cc3)ccc2O1 | inactive | inactive | inactive
O=C(NCO)c1ccc([N+](=O)[O-])cc1 | inactive | inactive | inactive
COc1ccc(S(=O)(=O)N(C)C[C@@H]2OCCCC[C@H](C)Oc3ccc(NC(=O)c4ccccc4)cc3C(=O)N([C@@H](C)CO)C[C@H]2C)cc1 | inactive | active | inactive
C[C@H]1CN([C@@H](C)CO)C(=O)c2ccccc2-c2ccccc2CO[C@@H]1CN(C)S(=O)(=O)c1ccc(C(F)(F)F)cc1 | inactive | inactive | inactive
C[C@@H]1CN([C@@H](C)CO)C(=O)c2cc(NC(=O)c3ccncc3)ccc2O[C@@H](C)CCCCO[C@H]1CN(C)S(C)(=O)=O | inactive | inactive | inactive
CCCC#Cc1ccc2c(c1)O[C@H](CN(C)S(=O)(=O)c1cccc(F)c1)[C@@H](C)CN([C@H](C)CO)S2(=O)=O | inactive | inactive | inactive
Nc1nc(/C(=C/CC(=O)O)C(=O)N[C@@H]2C(=O)N3C(C(=O)O)=CCS[C@H]23)cs1 | inactive | inactive | inactive
Cc1ccc(S(=O)(=O)Nc2ccc3c(c2)C(=O)N([C@H](C)CO)C[C@H](C)[C@@H](CN(C)Cc2ccc(C(=O)O)cc2)OCCCC[C@H](C)O3)cc1 | inactive | inactive | inactive
CO[C@@H](CN(C)C(=O)c1ccc2c(c1)OCO2)[C@@H](C)CN([C@H](C)CO)S(=O)(=O)c1ccc(C)cc1 | inactive | inactive | inactive
Cc1noc(C)c1S(=O)(=O)N(C)C[C@H]1OCCCC[C@@H](C)Oc2ccc(NC(=O)Nc3ccc(F)cc3)cc2C(=O)N([C@@H](C)CO)C[C@@H]1C | inactive | inactive | inactive
C[C@@H]1CN([C@H](C)CO)C(=O)c2cc(NC(=O)C3CCCCC3)ccc2O[C@@H](C)CCCCO[C@H]1CN(C)Cc1ccc2c(c1)OCO2 | inactive | inactive | inactive
Nc1nonc1C(=O)NCc1ccco1 | inactive | inactive | inactive
COc1ccc(S(=O)(=O)N(C)C[C@H]2OCCCC[C@H](C)Oc3ccc(NC(=O)CCC(F)(F)F)cc3C(=O)N([C@H](C)CO)C[C@@H]2C)cc1 | inactive | inactive | inactive
C[C@@H]1CCCCO[C@H](CN(C)Cc2ccc(Cl)c(Cl)c2)[C@@H](C)CN([C@H](C)CO)C(=O)c2cc(NC(=O)Nc3ccccc3)ccc2O1 | inactive | inactive | inactive
C[C@@H]1CN([C@@H](C)CO)C(=O)c2cccc(NC(=O)c3ccncc3)c2O[C@H]1CN(C)Cc1ccc(-c2ccccc2)cc1 | inactive | inactive | inactive
COc1ccc(S(=O)(=O)N(C)C[C@H]2Oc3ccc(NC(=O)Cc4ccccc4)cc3CC(=O)N([C@H](C)CO)C[C@H]2C)cc1 | inactive | inactive | inactive
C[C@H]1CCCCO[C@@H](CN(C)C(=O)NC2CCCCC2)[C@@H](C)CN([C@@H](C)CO)C(=O)c2cc(NC(=O)Nc3cccc4ccccc34)ccc2O1 | inactive | inactive | inactive
C[C@@H]1CCCCO[C@@H](CN(C)Cc2ccccc2)[C@@H](C)CN([C@@H](C)CO)C(=O)c2cc(NS(=O)(=O)c3ccccc3)ccc2O1 | inactive | active | inactive
CC(=O)N(C)C[C@@H]1Oc2ncc(C#C[C@H](C)O)cc2C(=O)N([C@@H](C)CO)C[C@@H]1C | inactive | inactive | inactive
COc1ccc(S(=O)(=O)N(C)C[C@@H]2OCc3cnnn3CCCC(=O)N([C@H](C)CO)C[C@H]2C)cc1 | inactive | inactive | inactive
C[C@H]1CN([C@@H](C)CO)S(=O)(=O)c2ccc(-c3ccccc3F)cc2O[C@H]1CN(C)Cc1cncnc1 | inactive | inactive | inactive
COCC#Cc1cnc2c(c1)C(=O)N([C@H](C)CO)C[C@H](C)[C@@H](CN(C)C(=O)Nc1ccc(OC)cc1)O2 | inactive | inactive | inactive
C[C@H]1CN([C@@H](C)CO)C(=O)c2cccc(NC(=O)C3CCCCC3)c2O[C@H]1CN(C)C(=O)Nc1ccc(C(F)(F)F)cc1 | inactive | inactive | inactive
COc1ccc(NC(=O)Nc2ccc3c(c2)C(=O)N([C@@H](C)CO)C[C@@H](C)[C@H](CN(C)C(=O)C2CCCCC2)OCCCC[C@@H](C)O3)cc1 | inactive | inactive | inactive
CO[C@@H]1CN(C)C(=O)c2cc(NC(=O)Nc3ccccc3F)ccc2OC[C@H](C)N(Cc2ccccc2C(=O)O)C[C@@H]1C | inactive | inactive | inactive
CC(C)N1CC=C[C@@]23O[C@@H]4C=CCOC(=O)[C@@H]4[C@H]2C(=O)N([C@@H](C)CO)[C@@H]3C1=O | inactive | inactive | inactive
